One test concerns the target GST-NR1 C0-C1-C2 (mouse) (UniProt P35438). Briefly: pull-down; bait (GST-NR1 C0-C1-C2 or GST-MOR) covalently attached to NHS-activated Sepharose; σ1R 100 nM in 50 mM Tris-HCl pH 7.4, 0.2% CHAPS, 30 min RT; 0 mM CaCl2; Western blot; both purified.
Test [1] deals with NMDAR NR1 C0-C1-C2 subunit, full length murine, BiFC fusion (murine) (UniProt P35438). The experiment in a line: split reporter; BiFC in living CHO cells transiently co-transfected with the pair of full-length proteins in the VN173 and VC155 plasmids (0.3 ug); confocal fluorescence 24 h later.
The target in test [2] is cannabinoid CB1 receptor, full length murine, BiFC fusion (murine) (UniProt P47746). Described as above.
Test [3] deals with dopamine D1 receptor, full length murine, BiFC fusion (murine) (UniProt Q61616). The test is described as above.
In test [4] the target is dopamine D2 receptor, full length murine, BiFC fusion (murine) (UniProt P61168). The description is as above.
In test [5] the target is T1, histidine triad nucleotide-binding protein 1 (HINT1), full length murine, BiFC fusion (murine) (UniProt P70349).
T1 sequence: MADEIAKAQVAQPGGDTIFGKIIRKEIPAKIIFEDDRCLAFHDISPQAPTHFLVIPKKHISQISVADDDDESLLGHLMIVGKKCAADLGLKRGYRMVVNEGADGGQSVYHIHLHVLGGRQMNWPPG
The description is as above.

The chains behind the UniProt entries cited, without tags or fusion partners. Residues count along the entry.
UniProt P47746: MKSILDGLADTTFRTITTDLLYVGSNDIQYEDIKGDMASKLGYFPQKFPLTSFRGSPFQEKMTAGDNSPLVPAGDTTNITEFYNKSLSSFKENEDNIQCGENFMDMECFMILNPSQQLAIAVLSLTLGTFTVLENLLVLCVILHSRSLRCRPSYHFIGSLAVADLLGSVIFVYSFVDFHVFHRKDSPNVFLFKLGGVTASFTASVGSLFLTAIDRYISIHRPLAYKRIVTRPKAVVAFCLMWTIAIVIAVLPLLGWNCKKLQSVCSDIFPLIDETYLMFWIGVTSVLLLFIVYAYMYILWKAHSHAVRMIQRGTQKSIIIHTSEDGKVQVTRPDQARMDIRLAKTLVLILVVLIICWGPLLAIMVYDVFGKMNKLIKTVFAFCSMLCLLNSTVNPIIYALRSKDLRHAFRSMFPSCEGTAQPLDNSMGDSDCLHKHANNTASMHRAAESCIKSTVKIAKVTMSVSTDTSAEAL
UniProt Q61616: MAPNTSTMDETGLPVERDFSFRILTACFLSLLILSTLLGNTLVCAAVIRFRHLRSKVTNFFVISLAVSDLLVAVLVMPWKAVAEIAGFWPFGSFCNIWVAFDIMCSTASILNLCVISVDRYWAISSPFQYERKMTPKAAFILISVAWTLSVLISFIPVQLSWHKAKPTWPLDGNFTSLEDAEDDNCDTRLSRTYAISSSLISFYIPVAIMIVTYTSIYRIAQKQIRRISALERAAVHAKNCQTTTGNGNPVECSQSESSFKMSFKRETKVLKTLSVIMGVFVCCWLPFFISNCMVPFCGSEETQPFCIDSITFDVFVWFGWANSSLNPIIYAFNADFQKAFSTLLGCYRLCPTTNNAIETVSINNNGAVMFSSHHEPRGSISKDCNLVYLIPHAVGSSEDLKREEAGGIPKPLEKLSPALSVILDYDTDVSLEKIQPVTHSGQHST
UniProt P61168: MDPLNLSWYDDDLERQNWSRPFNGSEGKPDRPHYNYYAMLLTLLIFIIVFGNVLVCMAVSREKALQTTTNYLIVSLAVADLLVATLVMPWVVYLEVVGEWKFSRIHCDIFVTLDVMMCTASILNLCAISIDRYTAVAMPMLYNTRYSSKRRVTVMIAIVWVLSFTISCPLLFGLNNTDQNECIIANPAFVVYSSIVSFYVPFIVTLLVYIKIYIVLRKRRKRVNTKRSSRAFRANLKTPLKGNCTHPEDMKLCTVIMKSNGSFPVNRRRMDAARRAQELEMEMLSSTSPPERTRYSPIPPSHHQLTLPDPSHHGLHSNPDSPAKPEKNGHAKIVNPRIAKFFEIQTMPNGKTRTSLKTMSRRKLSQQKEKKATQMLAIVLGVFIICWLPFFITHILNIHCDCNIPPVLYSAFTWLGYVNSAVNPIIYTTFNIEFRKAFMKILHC
UniProt Q14BI2, residues 19-872: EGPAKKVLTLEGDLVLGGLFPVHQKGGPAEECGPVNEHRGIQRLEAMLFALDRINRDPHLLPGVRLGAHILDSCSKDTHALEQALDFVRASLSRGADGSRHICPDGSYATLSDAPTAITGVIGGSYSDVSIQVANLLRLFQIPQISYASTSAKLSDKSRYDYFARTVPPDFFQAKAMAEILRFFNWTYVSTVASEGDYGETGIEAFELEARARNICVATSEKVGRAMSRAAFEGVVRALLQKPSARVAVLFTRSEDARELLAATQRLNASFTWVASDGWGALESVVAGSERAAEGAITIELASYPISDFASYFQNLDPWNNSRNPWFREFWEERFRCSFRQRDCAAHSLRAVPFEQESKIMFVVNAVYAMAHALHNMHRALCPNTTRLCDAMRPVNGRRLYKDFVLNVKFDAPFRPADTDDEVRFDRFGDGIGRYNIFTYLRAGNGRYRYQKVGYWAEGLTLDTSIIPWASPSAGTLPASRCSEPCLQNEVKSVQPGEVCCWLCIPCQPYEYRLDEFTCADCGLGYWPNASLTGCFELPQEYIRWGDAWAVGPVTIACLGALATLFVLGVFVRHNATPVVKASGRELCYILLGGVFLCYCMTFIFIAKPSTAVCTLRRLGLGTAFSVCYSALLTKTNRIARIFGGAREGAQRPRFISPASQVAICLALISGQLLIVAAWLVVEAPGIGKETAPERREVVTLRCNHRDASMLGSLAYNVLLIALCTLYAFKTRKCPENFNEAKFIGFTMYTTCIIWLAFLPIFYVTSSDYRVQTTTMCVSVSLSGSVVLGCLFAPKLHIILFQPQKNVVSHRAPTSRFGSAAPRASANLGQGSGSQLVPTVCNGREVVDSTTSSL
UniProt Q3UVX5, residues 19-1203: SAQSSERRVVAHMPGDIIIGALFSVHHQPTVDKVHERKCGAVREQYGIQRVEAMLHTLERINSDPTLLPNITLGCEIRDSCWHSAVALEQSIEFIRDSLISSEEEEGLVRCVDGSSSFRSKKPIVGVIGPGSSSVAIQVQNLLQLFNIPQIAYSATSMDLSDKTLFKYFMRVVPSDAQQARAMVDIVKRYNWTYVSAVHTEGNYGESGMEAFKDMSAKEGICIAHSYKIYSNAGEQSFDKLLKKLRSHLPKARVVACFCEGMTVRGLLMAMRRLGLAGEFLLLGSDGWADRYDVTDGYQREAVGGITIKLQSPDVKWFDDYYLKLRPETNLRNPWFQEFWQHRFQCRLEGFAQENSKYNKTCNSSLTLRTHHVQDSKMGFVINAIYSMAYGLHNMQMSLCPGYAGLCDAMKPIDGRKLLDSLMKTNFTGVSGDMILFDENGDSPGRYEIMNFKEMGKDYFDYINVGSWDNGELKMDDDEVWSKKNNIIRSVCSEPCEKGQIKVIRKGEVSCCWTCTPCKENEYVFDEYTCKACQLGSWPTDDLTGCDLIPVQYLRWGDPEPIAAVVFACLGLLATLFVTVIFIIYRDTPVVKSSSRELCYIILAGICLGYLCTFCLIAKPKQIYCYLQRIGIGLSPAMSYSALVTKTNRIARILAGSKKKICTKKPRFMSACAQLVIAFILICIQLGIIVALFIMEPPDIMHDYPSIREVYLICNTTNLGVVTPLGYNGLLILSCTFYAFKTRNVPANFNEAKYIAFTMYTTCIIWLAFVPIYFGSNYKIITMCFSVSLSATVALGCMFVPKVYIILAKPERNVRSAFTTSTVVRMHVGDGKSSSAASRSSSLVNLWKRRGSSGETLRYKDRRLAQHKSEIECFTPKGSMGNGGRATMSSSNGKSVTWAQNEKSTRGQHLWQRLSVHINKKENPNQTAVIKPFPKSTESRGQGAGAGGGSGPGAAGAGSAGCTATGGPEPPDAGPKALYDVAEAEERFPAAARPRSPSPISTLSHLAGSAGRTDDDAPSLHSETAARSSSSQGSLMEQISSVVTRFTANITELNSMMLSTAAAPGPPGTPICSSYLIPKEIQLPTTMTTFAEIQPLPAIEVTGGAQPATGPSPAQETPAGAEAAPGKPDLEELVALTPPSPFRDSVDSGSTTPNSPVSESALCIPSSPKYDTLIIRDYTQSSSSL
UniProt P42866: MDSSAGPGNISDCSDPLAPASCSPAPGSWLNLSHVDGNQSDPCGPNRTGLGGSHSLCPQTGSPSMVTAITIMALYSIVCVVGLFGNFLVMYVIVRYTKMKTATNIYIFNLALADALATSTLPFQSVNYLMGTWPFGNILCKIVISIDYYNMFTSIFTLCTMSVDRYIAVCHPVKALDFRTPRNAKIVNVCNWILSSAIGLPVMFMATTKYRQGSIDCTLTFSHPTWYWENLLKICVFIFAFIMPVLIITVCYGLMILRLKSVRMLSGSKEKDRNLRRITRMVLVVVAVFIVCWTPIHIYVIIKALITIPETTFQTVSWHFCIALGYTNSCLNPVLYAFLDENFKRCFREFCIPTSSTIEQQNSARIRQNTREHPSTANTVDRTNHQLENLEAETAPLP
UniProt Q9Z0J4: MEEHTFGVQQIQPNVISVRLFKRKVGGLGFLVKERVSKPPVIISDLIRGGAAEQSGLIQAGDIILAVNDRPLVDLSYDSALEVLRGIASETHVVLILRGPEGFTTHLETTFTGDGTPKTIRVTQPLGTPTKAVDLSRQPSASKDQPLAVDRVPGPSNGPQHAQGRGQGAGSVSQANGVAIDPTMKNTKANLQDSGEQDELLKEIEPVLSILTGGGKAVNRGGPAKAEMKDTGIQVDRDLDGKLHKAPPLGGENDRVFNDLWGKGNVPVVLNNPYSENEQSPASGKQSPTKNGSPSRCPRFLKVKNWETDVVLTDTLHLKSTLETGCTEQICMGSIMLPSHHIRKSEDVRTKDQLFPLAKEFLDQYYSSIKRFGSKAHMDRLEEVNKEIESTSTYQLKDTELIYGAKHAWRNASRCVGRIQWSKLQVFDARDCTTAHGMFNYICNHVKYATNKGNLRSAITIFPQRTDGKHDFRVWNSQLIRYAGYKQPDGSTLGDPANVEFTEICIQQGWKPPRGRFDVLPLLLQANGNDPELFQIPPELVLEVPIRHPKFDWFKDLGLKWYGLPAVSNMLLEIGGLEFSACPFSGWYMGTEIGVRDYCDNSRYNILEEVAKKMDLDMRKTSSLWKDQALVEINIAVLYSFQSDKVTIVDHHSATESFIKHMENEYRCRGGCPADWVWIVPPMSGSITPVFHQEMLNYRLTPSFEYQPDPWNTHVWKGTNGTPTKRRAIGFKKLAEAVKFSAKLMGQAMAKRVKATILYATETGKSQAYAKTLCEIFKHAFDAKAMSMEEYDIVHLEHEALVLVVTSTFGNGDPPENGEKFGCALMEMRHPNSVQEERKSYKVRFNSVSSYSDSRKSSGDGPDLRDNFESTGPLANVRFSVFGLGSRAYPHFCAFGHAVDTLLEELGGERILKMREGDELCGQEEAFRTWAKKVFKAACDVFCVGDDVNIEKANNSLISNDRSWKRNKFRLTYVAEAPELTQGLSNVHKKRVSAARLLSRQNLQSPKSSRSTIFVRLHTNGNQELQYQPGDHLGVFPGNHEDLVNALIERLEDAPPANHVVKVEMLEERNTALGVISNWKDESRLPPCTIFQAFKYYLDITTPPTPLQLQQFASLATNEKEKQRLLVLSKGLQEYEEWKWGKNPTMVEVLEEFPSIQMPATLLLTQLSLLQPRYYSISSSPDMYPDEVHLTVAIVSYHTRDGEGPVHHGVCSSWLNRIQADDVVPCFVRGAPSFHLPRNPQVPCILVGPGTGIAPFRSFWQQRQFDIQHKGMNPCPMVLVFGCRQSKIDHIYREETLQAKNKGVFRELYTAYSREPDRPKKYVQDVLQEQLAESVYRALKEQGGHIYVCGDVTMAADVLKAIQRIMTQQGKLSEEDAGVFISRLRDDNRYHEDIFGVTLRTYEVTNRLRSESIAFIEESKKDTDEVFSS
UniProt Q64264: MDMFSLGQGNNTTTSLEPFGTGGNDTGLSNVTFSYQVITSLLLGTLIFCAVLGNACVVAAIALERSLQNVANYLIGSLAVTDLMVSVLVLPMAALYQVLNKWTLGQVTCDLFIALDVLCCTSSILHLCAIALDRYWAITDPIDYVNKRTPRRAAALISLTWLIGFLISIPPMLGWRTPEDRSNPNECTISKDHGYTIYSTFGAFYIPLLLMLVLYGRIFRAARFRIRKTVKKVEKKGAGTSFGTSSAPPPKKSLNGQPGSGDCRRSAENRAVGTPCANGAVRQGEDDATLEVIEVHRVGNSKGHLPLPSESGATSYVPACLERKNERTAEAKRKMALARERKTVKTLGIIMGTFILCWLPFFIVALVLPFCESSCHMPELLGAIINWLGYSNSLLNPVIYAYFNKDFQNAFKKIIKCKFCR
UniProt P35363: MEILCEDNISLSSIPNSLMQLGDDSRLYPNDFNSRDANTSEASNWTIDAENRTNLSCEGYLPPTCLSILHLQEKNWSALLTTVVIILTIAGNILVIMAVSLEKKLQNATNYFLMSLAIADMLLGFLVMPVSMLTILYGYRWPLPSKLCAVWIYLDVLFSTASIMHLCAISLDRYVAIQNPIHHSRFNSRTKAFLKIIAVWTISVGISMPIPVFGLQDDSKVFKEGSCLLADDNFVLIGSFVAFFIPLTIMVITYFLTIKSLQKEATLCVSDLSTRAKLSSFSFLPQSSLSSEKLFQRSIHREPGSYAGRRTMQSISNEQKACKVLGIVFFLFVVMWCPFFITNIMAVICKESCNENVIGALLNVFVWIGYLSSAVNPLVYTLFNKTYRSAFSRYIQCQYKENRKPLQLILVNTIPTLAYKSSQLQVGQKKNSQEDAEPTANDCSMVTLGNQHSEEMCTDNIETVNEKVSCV
UniProt O55242: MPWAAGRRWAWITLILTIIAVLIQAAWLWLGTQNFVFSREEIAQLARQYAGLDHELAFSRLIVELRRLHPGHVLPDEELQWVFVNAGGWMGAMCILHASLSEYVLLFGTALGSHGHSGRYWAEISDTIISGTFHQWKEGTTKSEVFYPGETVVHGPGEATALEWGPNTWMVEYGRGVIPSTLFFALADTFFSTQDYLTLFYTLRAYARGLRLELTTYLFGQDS

The target in test [6] is metabotropic glutamate 2 receptor, full length murine, BiFC fusion (murine) (UniProt Q14BI2). Described as above.
Test [7] concerns the target metabotropic glutamate 5 receptor, full length murine, BiFC fusion (murine) (UniProt Q3UVX5). The test is described as above.
Test [8] has as its target mu-opioid receptor (MOR), full length murine, BiFC fusion (murine) (UniProt P42866). The test is described as above.
Test [9] deals with neural nitric oxide synthase (nNOS), full length murine, BiFC fusion (murine) (UniProt Q9Z0J4). The description is as above.
In test [10] the target is serotonin 1A receptor, full length murine, BiFC fusion (murine) (UniProt Q64264). The description is as above.
For test [11], the target named is serotonin 2A receptor, full length murine, BiFC fusion (murine) (UniProt P35363). The test is described as above.

These are yes or no findings as the source states them, for the method shown. For part of these data: Binding seen in cells or lysates may run through a third protein. Some binding calls cover weakened binding; strength is not graded here. For part of these data: Tags and fused reporters may be left off the sequences shown.

“recombinant σ1R (from UniProt O55242 1-223) (receptor)”: the binding result in the test with GST-NR1 C0-C1-C2 (mouse) is listed as “binds weakly”.

Turning to “sigma 1 receptor (σ1R), full length murine, BiFC fusion (from UniProt O55242 1-223)”, the binding result in test [1], in test [2], in [3], in test [4], in test [5] and in test [6] was “binds” each time. Moreover, the binding result in [7] is “binds”; in test [8], “binds”; in test [9], “no binding”; in test [10], “binds”; in [11] it was “binds”.

The values are drawn from PMC4742118.
